Biological target: tau aggregates in brain stem homogenate preps from 4.5 to 5 month old P301S mice, P10636
Experiment: cell-based or functional assay

% PG-5 Immunoreactivity, Left Hippocampus: 2.52% | % PG-5 Immunoreactivity, Right Hippocampus: 0.63%
B1: Exemplified anti-Tau antibody (having both HCs of SEQ ID NO.2 and both LCs of SEQ ID NO.1) (antibody, human IgG4 S228P, kappa, F234A L235A)
heavy: EVQLVQSGAEVKKPGESLKISCKGSGYTFSNYWIEWVRQMPGKGLEWMGEILPGSDSIKYEKNFKGQVTISADKSISTAYLQWSSLKASDTAMYYCARRGNYVDDWGQGTLVTVSSASTKGPSVFPLAPCSRSTSESTAALGCLVKDYFPEPVTVSWNSGALTSGVHTFPAVLQSSGLYSLSSVVTVPSSSLGTKTYTCNVDHKPSNTKVDKRV[left out - human IgG4 Fc with S228P F234A L235A (EU numbers)]
light: EIVLTQSPGTLSLSPGERATLSCRSSQSLVHSNQNTYLHWYQQKPGQAPRLLIYKVDNRFSGIPDRFSGSGSGTDFTLTISRLEPEDFAVYYCSQSTLVPLTFGGGTKVEIKRTVAAPSVFIFPPSDEQLKSGTASVVCLLNNFYPREAKVQWKVDNALQSGNSQESVTEQDSKDSTYSLSSTLTLSKADYEKHKVYACEVTHQGLSSPVTKSFNRGEC
